Test: Solubility in dosing vehicle
Details: 1:1:18 ethanol, Tween 80, 0.9% saline; 5 ml/kg; doses of 30 mg/kg and 100 mg/kg

CCCCCc1cc(O)c2c(c1)OC(C)(C)c1ccc(C)cc1-2 [CBN, cannabinol]
solubility in vehicle at the required volumes: insoluble
